# Measured values taken from paper PMC4336329 (PLoS ONE, 2015).
# Screen size: about 310,000 compounds; about 2,200 (0.71%) showed an effect of 50% or more. The effect is printed as a negative number. Some of the results follow.
# Molecular target: human ether-à-go-go-related gene (hERG) potassium channel (human, UniProt Q12809)
# Test: primary screen, population patch clamp on CHO cells stably expressing hERG
# human ether-à-go-go-related gene (hERG) potassium channel, sequence (Q12809 whole entry, looked up): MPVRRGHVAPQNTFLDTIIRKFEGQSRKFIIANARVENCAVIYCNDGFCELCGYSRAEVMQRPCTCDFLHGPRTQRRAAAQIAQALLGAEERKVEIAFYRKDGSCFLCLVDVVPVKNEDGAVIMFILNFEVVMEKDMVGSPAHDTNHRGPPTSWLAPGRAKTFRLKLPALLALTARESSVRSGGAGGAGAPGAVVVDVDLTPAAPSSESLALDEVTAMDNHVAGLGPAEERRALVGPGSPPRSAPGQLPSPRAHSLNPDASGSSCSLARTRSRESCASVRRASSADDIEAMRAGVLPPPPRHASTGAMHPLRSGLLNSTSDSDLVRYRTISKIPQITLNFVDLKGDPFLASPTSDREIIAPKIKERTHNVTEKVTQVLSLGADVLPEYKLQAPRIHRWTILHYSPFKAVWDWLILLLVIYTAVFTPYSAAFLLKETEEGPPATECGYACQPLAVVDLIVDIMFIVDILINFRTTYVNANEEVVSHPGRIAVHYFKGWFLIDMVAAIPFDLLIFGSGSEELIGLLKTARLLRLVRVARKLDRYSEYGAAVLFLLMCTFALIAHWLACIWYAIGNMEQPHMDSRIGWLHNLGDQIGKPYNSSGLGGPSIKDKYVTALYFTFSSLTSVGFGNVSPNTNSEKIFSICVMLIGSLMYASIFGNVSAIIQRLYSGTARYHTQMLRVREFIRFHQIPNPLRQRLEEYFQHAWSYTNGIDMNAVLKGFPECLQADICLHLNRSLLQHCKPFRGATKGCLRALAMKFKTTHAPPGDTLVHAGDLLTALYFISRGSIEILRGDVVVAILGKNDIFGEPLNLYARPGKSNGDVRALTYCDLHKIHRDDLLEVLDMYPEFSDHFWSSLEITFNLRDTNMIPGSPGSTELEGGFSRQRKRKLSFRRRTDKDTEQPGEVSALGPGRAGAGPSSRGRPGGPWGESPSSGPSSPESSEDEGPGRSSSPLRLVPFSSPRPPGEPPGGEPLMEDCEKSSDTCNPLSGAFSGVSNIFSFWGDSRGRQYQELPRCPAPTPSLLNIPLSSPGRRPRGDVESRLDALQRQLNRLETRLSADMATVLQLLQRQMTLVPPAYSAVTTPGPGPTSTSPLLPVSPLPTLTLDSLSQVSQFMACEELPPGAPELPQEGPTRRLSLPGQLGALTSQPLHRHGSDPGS
row,SMILES,"hERG current change (%, negative = inhibition) at 1uM [%]"
1,COC(=O)c1sccc1-c1ccc(/C=N/OC(=O)c2ccccc2)o1,9.65
2,Cn1c(SCC(=O)NNC(=O)c2ccccc2)nnc1C1CC1,11.6
3,O=[N+]([O-])c1ccc(NC(=S)N2CCCC2)cc1,11
4,O=C(Oc1c(Cl)cc(Cl)c2cccnc12)c1ccco1,6.64
5,O=S(=O)(Nc1ccncc1Cl)c1ccccc1,-1.28
6,Cc1nn(CC#N)c(=O)n1-c1ccc(F)cc1,13.5
7,CCCSc1nc2sc3c(c2c(=O)[nH]1)CCN(Cc1ccccc1)C3,11.1
8,CCN(CC)CCCNCC(=O)Nc1ccc(OC)c(Cl)c1.O=C(O)C(=O)O,0.937
9,CCOC(=O)c1c(C)n(C)c2ccc(OC(=O)c3ccoc3)cc12,13.4
10,N#C/C(=C\c1ccc(N2CCOCC2)o1)C(=O)NCC1CCCO1 (centres unmarked),11.6
11,CCOC(=O)C1C(c2ccc3c(c2)OCO3)NC(=O)NC1(O)C(F)(F)F (centres unmarked),13.9
12,O=c1cc(CN2CC=C(c3ccccc3)CC2)c2c(ccc3ccccc32)o1,4.72
13,CC(=O)c1cn(CCOc2ccc(F)cc2)c2ccccc12,1.98
14,Cc1ccccc1CN(c1ccc(C(=O)NCc2ccccn2)cc1)S(C)(=O)=O,-5.08
15,Cc1cc(C)c(NC(=O)CN2C(=O)NC3(CCCCC3)C2=O)c(C)c1,7.96
16,O=C1c2ccccc2CCC12N=NCC2c1ccc(Cl)cc1 (centres unmarked),1.32
17,CC(=O)N1CCOc2ccc(S(=O)(=O)N3CCC(C(=O)NCc4ccccc4)CC3)cc21,13.7
18,Fc1ccc(-n2c(Cc3ccccc3)nnc2SCc2nc(-c3ccc(Cl)cc3)no2)cc1,6.92
19,O=S(=O)(c1ccc(NCc2ccc(F)cc2)nc1)N1CCCC1,5.02
20,Cc1ccc(CN(Cc2cccnc2)C(=S)Nc2cc(Cl)ccc2C)cc1,4.8
21,Cc1cccc(N(Cc2ccccc2)C(=O)CN2C(=O)NC3(CCCC3)C2=O)c1,5.93
22,Cc1ccc(Nc2ncnc(N)n2)cc1C,10.3
23,CC(=O)OC(C(=O)NC1CCCCC1)c1ccccc1Cl (centres unmarked),8.56

row,SMILES,"hERG current change (%, negative = inhibition) at 1uM [%]"
1,COc1ccc(OC)c(NC(=O)c2ccc(-c3cccs3)cc2)c1,4.36
2,COc1ccc(CNc2ccc(C)c(C)c2)c(OC)c1OC.O=C(O)C(=O)O,14.4
3,Cc1cc(C)cc(N(C(C)C(=O)NCCC2=CCCCC2)S(C)(=O)=O)c1 (centres unmarked),-0.283
4,Cc1onc(-c2ccccc2Cl)c1C(=O)N1CCC(C)CC1,6.97
5,CC(=O)N1CCC2(CC1)CC(=O)c1cc(OCC(=O)NCc3ccco3)ccc1O2,-3.27
6,CCSc1nc2n(n1)C(c1cccc(F)c1)C1=C(CCCC1=O)N2 (centres unmarked),-10.9
7,N#Cc1c(-c2ccc(F)cc2)cc(C2CC2)nc1SCC(=O)c1cccs1,11.6
8,CC(C)Oc1ccc2c(=O)c(-c3ccccc3)coc2c1,15.9
9,C[C@@H]1C(=O)OC[C@H]1NC(=O)OCc1ccccc1,6.85
10,CCOc1ccc(-c2nnn(CC(=O)NCCc3c[nH]c4ccccc34)n2)cc1,6.94
11,O=[N+]([O-])c1ccc(N2CCCCC2)cc1,11.2
12,COc1cccc(NC(=S)NCCCN2CCOCC2)c1,11.1
13,CCOc1cccc2cc(-c3nnc(NCc4ccc5c(c4)OCO5)s3)c(=O)oc12,8.25
14,C/C(=N/NC(=O)c1cc(-c2ccc(Cl)s2)[nH]n1)c1ccco1,11.3
15,O=c1[nH]c(N/N=C/c2cc3c(cc2[N+](=O)[O-])OCO3)nc2ccccc12,14.8
16,COc1ccc(-c2n[nH]c(=S)n2-c2ccc(C)cc2C)cc1,11.7
17,Cc1nnc(SCC(=O)c2c[nH]c3ccccc23)n1C1CC1,4.62
18,CCCC(=O)Nc1ccc2c(c1)nc(CCN1CCCCC1)n2C,8.42
19,O=C(CN(c1cccc([N+](=O)[O-])c1)S(=O)(=O)c1ccccc1)NCc1ccccc1,-43.7
20,CN(C)CCCN1C(=O)c2oc3ccccc3c(=O)c2C1c1cccs1 (centres unmarked),8.34
21,CCOC(=O)C(O)(c1ccc(N(CC)C(=O)OC)cc1)C(F)(F)F (centres unmarked),7.09
22,CC(C)(C)NCc1cc(Cl)ccc1OCc1ccccc1F.Cl,-14.2
23,CC1(C)CC(=O)C=C(NNC(=O)c2ccccc2O)C1,-0.775

row,SMILES,"hERG current change (%, negative = inhibition) at 1uM [%]"
1,O=C(NC1CCCCC1)C(c1cccnc1)N(C(=O)c1csnn1)C1CCCC1 (centres unmarked),9.74
2,C=CCOc1ccccc1CN1CCCC(CCC(=O)N(C)CCc2ccccn2)C1 (centres unmarked),-3.73
3,CC1=CSC2=NC(=O)/C(=C\c3cccn3-c3ccccc3)C(=N)N12,6.1
4,CC(=O)CCc1ccc(Oc2nc(-c3cccnc3)nc3ccccc23)cc1,12.1
5,COc1ccc(CC(=O)Oc2ccc(F)cc2)cc1,9.37
6,COC(=O)c1sccc1NC(=O)CSc1cccc(Cl)c1Cl,4.53
7,COc1ccc2c(CC(=O)OCC(=O)Nc3cccc(C)c3)coc2c1,11.1
8,Cc1ccc(Cn2ccc(NC(=O)c3cc(C4CC4)on3)n2)cc1,9.57
9,COCc1nnc(NC(=O)CCSc2ccccc2)s1,6.94
10,CCOC(=O)C(C(=O)OCC)N(C#N)c1nc(C)cc(C)n1,2.33
11,O=C(Nc1ccccc1N1CCN(C(=O)c2ccc(Cl)cc2)CC1)c1ccc(Br)cc1,-4.26
12,N#C/C(=C/c1cccc(O)c1)C(=O)NCc1ccc(Cl)cc1,23.5
13,Cc1ccccc1NC(=O)COC(=O)c1ccc(S(=O)(=O)N2CCCC2)cc1,9.05
14,O=C(NC(=S)NCc1ccccc1)c1ccccc1Br,6.34
15,CN(CC(=O)Nc1cccnc1Cl)S(=O)(=O)c1ccc(Cl)cc1,9.06
16,COc1ccc2sc(N(CCN(C)C)C(=O)/C=C/c3cccs3)nc2c1.Cl,0.952
17,CCN(CC(=O)Nc1c(F)cccc1F)C(=O)Cc1csc(-c2ccc(OC)c(OC)c2)n1,4.29
18,Cc1cccc(S(=O)(=O)NCCC(=O)OCC(=O)Nc2ccc(C#N)cc2)c1,8.98
19,CC(=O)OC(C(=O)Nc1nccs1)c1ccccc1 (centres unmarked),7.99
20,O=C(N/N=C1\CC2CC=CC12)c1ccc(Br)cc1 (centres unmarked),10.7
21,Cc1ccc(CNC(=O)CN2CCN(Cc3ccc(Cl)cc3)C2=O)cc1,2.87
22,O=C1c2ccccc2C(=O)N1n1cccc1,11.1
23,CCCCc1c(O)nc(SCC(=O)N2CCCCC2)n(-c2ccccc2C)c1=O,5.79

row,SMILES,"hERG current change (%, negative = inhibition) at 1uM [%]"
1,Cc1ccc2[nH]c3c(c2c1)CN(C(=O)CN1CCCCC1)CC3,-0.784
2,COc1cccc(OC)c1C(=O)NC(C)CCc1ccccc1 (centres unmarked),9.8
3,COc1ccccc1NC(=O)C(C)OC(=O)C1CC(=O)N(c2ccc3c(c2)OCCO3)C1 (centres unmarked),11.2
4,Cl.OCCN1CCN(CC/C=C2/c3ccccc3Sc3ccc(Cl)cc32)CC1,-4.15
5,CCC(=O)N(Cc1cc(=O)[nH]c2ccccc12)c1ccc(OC)cc1,-2.38
6,CC(=O)c1c(O)c2cccc3c2n(c1=O)CCC3,14.8
7,CCOC(=O)c1sc(NC(=O)c2cc(-c3ccc(C)cc3)nc3ccccc23)c(C#N)c1C,8.49
8,COc1ccc(NC(=O)CC(=O)Nc2ccc(OC)cc2)cc1,8.34
9,CCn1c2ccccc2c2nnc(SCC(=O)c3ccccc3)nc21,11
10,O=C(COC(=O)c1ccccc1C(=O)c1ccccc1)Nc1ccc(SC(F)F)cc1,6.48
11,COc1cccc(CC(=O)Nc2ccc3c(c2)CCC3)c1,9.08
12,O=c1oc2cc([N+](=O)[O-])ccc2nc1/C=C(\O)c1cccc(Br)c1,7.34
13,COc1ccccc1NC(=O)C1CCCCN1S(=O)(=O)c1ccc(F)cc1 (centres unmarked),0.408
14,Cc1ccccc1OCc1nnc(SCC(=O)N2CCc3ccccc32)n1C,5.32
15,O=[N+]([O-])c1c(NCCO)cc(N2CCN(Cc3ccc4c(c3)OCO4)CC2)c2nonc12,0.979
16,N#CCCn1c(SCC(=O)Nc2ccc(N3CCOCC3)cc2)nc2ccccc21,3.82
17,COc1ccc(NC(=O)c2ccccc2)c([N+](=O)[O-])c1,13.2
18,Cc1c(C(=O)Nc2ccc3c(c2)OCCO3)oc2ccc(Br)cc12,10.5
19,Cc1cccn2c(=O)c(/C=C(\C#N)C(N)=O)c(N3CCN(Cc4ccc5c(c4)OCO5)CC3)nc12,0.0831
20,COc1ccc(C(C(=O)NC(C)(C)C)N(Cc2ccco2)C(=O)CCC(=O)Nc2ccccn2)cc1 (centres unmarked),11.4
